In article PMC7819943, “Rice protein-binding microarrays: a tool to detect cis-acting elements near promoter regions in rice” one finds binding signal data, which are given here for 42 sequences.

The other results are listed elsewhere or left out.

This assay has as its target T1, OsWOX13 (Oryza sativa, UniProt Q5QMM3 1-267).
T1 sequence: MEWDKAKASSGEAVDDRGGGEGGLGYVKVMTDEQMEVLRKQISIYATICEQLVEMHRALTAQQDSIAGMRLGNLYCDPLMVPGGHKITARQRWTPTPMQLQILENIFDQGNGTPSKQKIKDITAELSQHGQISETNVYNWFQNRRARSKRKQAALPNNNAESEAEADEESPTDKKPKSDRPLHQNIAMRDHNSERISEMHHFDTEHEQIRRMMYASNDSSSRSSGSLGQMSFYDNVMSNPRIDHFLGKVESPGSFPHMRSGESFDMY
As to the kind of experiment: protein-binding microarray (RPBM); PBS, 2% BSA, 51.3 ng/ul salmon testes DNA, 50 uM zinc acetate, 200 nM TF, 25 C, 1 h; high values mean tight binding. To be noted: protein: recombinant; tags: N-terminal polyhistidine and DsRed monomer fusion (pET32a); label: CyDye5-dUTP incorporated in the synthesized complementary strand; 3' TTTTT single-stranded linker to array surface; dsDNA, one strand shown. An outline of the steps: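 Binding signal is defined as the fluorescence intensity of each feature in arbitrary units, read on an Axon 4000B scanner. Transcription factors with N-terminal polyhistidine and DsRed fusions came from E. coli BL21-CodonPlus and were purified on Ni–NTA. They were incubated at 200 nM for 1 h at 25 °C on a custom Agilent array that had been made double-stranded with Cy5-dUTP, with 50 µM zinc acetate present, and the array was washed.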
For “ATTAATGTTTAATGTCATTTATATGAATCAAAAGAGAGAGCGGAGTCACCTAGTGCAG”, the binding signal is 6260 fluorescence intensity (a.u.).

“CATCAAATAACTTTGATTTGATCTAACCTCTTAAAGACGTCGGAGTCACCTAGTGCAG”: the binding signal is 15200 fluorescence intensity (a.u.).

For the sequence “CCAAATTACAACAAATATAATTTTACTTAATCCAAAGTAACGGAGTCACCTAGTGCAG”, the binding signal is 8310 fluorescence intensity (a.u.).

For the sequence “GTTATTAATTGATTCTCTCCTGATTTTATTCTATAAATACCGGAGTCACCTAGTGCAG”, the binding signal is 18700 fluorescence intensity (a.u.).

Consider “GGCCTGATAATTAGTTAAATTTTCCGGCCCATACATAGGACGGAGTCACCTAGTGCAG”, for which the binding signal is 15600 fluorescence intensity (a.u.).

Turning to “TTCCAATTTTGATGTGAACTAAACACACCCTATGAATGGACGGAGTCACCTAGTGCAG”, the binding signal was 3560 fluorescence intensity (a.u.).

Consider “ATGCCATCCAATCAAGCCACGACGATCCACAGCCATAGTGCGGAGTCACCTAGTGCAG”, for which the binding signal was 11500 fluorescence intensity (a.u.).

In the case of “CCGGGGATTGATTTGCCGAGTGTATTATTGATCGTATGATCGGAGTCACCTAGTGCAG”, the binding signal is 53500 fluorescence intensity (a.u.).

In the case of “GTCTGATTTGGAGTCTGTTGGAGATGCTCTAACAATCTAACGGAGTCACCTAGTGCAG”, the binding signal is 13100 fluorescence intensity (a.u.).

On to “TTCCCCTCAATTGATTTCACCGGATAAGGAAAGGCGCGGCCGGAGTCACCTAGTGCAG”, for which the binding signal was 8510 fluorescence intensity (a.u.).

Take “ATTGTAATTAACTAATCATCATGCGTGTGCATTGTATTTACGGAGTCACCTAGTGCAG”: the binding signal is 22600 fluorescence intensity (a.u.).

For the sequence “GTATGGAAATTTAAAATGTGACGGATGGAGTTACAGGATCCGGAGTCACCTAGTGCAG”, the binding signal is 3980 fluorescence intensity (a.u.).

As to “CATTTCAATTTGGACCATCATATTTCATCCATCTCCAAGTCGGAGTCACCTAGTGCAG”, the binding signal is 3410 fluorescence intensity (a.u.).

With “GAACTTCTAATTATCAATATCAGTTCAAATGAAAAGGAATCGGAGTCACCTAGTGCAG”, the binding signal was 3840 fluorescence intensity (a.u.).

For “TTGATTTGTTGAAATGACTGATACTCCTTTTCTATTGTCTCGGAGTCACCTAGTGCAG”, the binding signal was 41100 fluorescence intensity (a.u.).

For “ACCCTAATTACTATAGCTTTGTCTTCTTCTTCTTCTTCTTCGGAGTCACCTAGTGCAG”, the binding signal was 20200 fluorescence intensity (a.u.).

Consider “CTGGATGATAAATTGAGGGATCTAAAGTGAACTTATTCGACGGAGTCACCTAGTGCAG”, for which the binding signal is 15400 fluorescence intensity (a.u.).

Turning to “CACATTGCTTATGATTATCTTCTAGATGAATCTGCCAACTCGGAGTCACCTAGTGCAG”, the binding signal is 5020 fluorescence intensity (a.u.).

With “CATAAATGTCAAATTAATACTTTAAATGCATTATGAATTTCGGAGTCACCTAGTGCAG”, the binding signal is 17600 fluorescence intensity (a.u.).

With “CTCATGATGGATCCACCTTAATCAGATCGTTGCTCATGGCCGGAGTCACCTAGTGCAG”, the binding signal is 4570 fluorescence intensity (a.u.).

Take “TTCTTGACAGGATGAAGGAATTGAGATGCCCTCCGGATAGCGGAGTCACCTAGTGCAG”: the binding signal is 26800 fluorescence intensity (a.u.).

On to “GCCTAATTATTACATAGAGACCAATCAATAAGCTATTAGCCGGAGTCACCTAGTGCAG”, for which the binding signal was 36900 fluorescence intensity (a.u.).

For the sequence “ATGCCCATCAACCAATCATAGATTGATATCCATCCATAAACGGAGTCACCTAGTGCAG”, the binding signal is 33600 fluorescence intensity (a.u.).

“TAGCCAATTCATATAATTAGCTACCTATAAACATATACTACGGAGTCACCTAGTGCAG”: the binding signal was 3520 fluorescence intensity (a.u.).

As to “AGGTTTTAATTTAATTCAACTGCCACCAACACGCACCAGTCGGAGTCACCTAGTGCAG”, the binding signal is 10100 fluorescence intensity (a.u.).

In the case of “CTGATGATAATCGTATTTCTGATGACCCATGATTCCGCGGCGGAGTCACCTAGTGCAG”, the binding signal is 7090 fluorescence intensity (a.u.).

With “CAGTATATAAATAATTTGAATTAGATGAGATATATCCTAGCGGAGTCACCTAGTGCAG”, the binding signal was 8160 fluorescence intensity (a.u.).

For “ACAAGATTATTTTAACATATGCATGATCTGATTTGATGCTCGGAGTCACCTAGTGCAG”, the binding signal was 20100 fluorescence intensity (a.u.).

Consider “ATTAATTATTATAAATTTAGGAAATGGAATTATTTGATTTCGGAGTCACCTAGTGCAG”, for which the binding signal was 25200 fluorescence intensity (a.u.).

In the case of “AGTTGCTTGATTATTGGGACTTGGGAGCAACTCACACACTCGGAGTCACCTAGTGCAG”, the binding signal is 13800 fluorescence intensity (a.u.).

For the sequence “AATGGAATTGCACAGGGCTAATTGGCACTTGACACTTTGGCGGAGTCACCTAGTGCAG”, the binding signal was 22500 fluorescence intensity (a.u.).

For the sequence “TCTAATTTGCATGATATCCAGAAGAGCTTAATATTTTGGCCGGAGTCACCTAGTGCAG”, the binding signal was 12900 fluorescence intensity (a.u.).

In the case of “CCGCCAATCACCCCAACCATCCATTTATGTCGTCGCGCCCCGGAGTCACCTAGTGCAG”, the binding signal was 17700 fluorescence intensity (a.u.).

On to “ATCGCAATAACGGGTAATTGACTTCCGCTGATTTGTTTAGCGGAGTCACCTAGTGCAG”, for which the binding signal is 24900 fluorescence intensity (a.u.).

As to “GACAAATTTCTTCAAACTGACAAATTAATCGAGCCCTACCCGGAGTCACCTAGTGCAG”, the binding signal was 7460 fluorescence intensity (a.u.).

For the sequence “CCAACTTGATTACATACGGCGGCATCTGTGTTATCACGGGCGGAGTCACCTAGTGCAG”, the binding signal was 27200 fluorescence intensity (a.u.).

For “GGAAATGATTTGAAAAGTGGTTTTATTCCTGTTAACTTTACGGAGTCACCTAGTGCAG”, the binding signal is 8080 fluorescence intensity (a.u.).

Consider “AACCGATTGGATCTAATAATGAGGGACTTATTCCATCACCCGGAGTCACCTAGTGCAG”, for which the binding signal is 4610 fluorescence intensity (a.u.).

“CCAATCAATTTGATCTCTCACCTCACTCTCGTGGGCTCACCGGAGTCACCTAGTGCAG”: the binding signal is 11900 fluorescence intensity (a.u.).

“TTGGAAGTTTGATTGAAATTGGAACGATGTGACGGGAAAGCGGAGTCACCTAGTGCAG”: the binding signal was 23300 fluorescence intensity (a.u.).

For the sequence “CGAGATTGGTAGTATTTCTATATTTTACTACCAGTTGGCGCGGAGTCACCTAGTGCAG”, the binding signal was 29600 fluorescence intensity (a.u.).

For the sequence “AAGATAATCACCGGGCAAATTACTGTTGCTGCTAGTTCACCGGAGTCACCTAGTGCAG”, the binding signal is 28800 fluorescence intensity (a.u.).
